“And” between values parts separate entries of the source, which are not always exact repeats. Identical values can stand only once. Counter-ions that a name gives are not always drawn. ± gives the standard deviation of the averaged measurements. The full ranking holds about 3,200 compounds; the median of “nuclei count (viability) relative to DMSO” is about 99, and the lowest 2% start at about 16. Some of the results follow.
The molecules below were run on U2OS (assay: nuclei count (viability) relative to DMSO (% of DMSO); higher = more viable cells). Details: 10 µM; 24 h.
Protocol: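 Primary image-based screen in U2OS cells: compounds at 10 uM for 24 h, then a 1 h o-propargyl-puromycin (OPP) pulse, click labelling, and high-throughput microscopy. Mean cytoplasmic OPP intensity and nuclei count were normalised to DMSO wells within each plate (DMSO = 100) and averaged over triplicate plates.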

SMILES | nuclei count
NS(=O)(=O)c1ccc(NC(=O)Nc2ccc(F)cc2)cc1 | 103
CC(=O)CC(c1ccc([N+](=O)[O-])cc1)c1c(O)c2ccccc2oc1=O (centres undefined) [Acenocoumarol] | 95.7
CCCCCCCCNC(C)C(O)c1ccc(SC(C)C)cc1 (centres undefined) [Suloctidil] | 99.6
S=c1[nH]cnc2nc[nH]c12 [Mercaptopurine] | 91.9 ± 12
CN(Cc1ccc(C(C)(C)C)cc1)Cc1cccc2ccccc12 [Butenafine Hydrochloride] | 96.1
O=C(NCCCNc1nc(Nc2cccc(NC(=O)N3CCCC3)c2)ncc1I)c1cccs1 | 40.1 ± 3.3
N=C(CC(O)COc1ccccc1-c1ccccc1)N1CCCCC1 (centres undefined) | 104
Cc1ccccc1C(=O)Nc1ccc(C(=O)N2CCCC(N(C)C)c3ccccc32)cc1 (centres undefined) [Mozavaptan] | 41.2
CCCOc1ccc(Br)cc1-c1cc(-c2ccc(Cl)cc2)[nH]c1-c1ccncc1 | 114
C=C[C@@](C)(/C=C/c1ccc(O)cc1)CCC=C(C)C [Bakuchiol] | 71.4
COc1cc2c(cc1OC)[C@@H]1Cc3ccc(OC)c(OC)c3CN1CC2 [Rotundine] | 99.9
O=C(CCCN1CCC(O)(c2ccc(Cl)cc2)CC1)c1ccc(F)cc1 [Haloperidol] | 92
O=C(CCCN1CCC(O)(c2ccc(Cl)cc2)CC1)c1ccc(F)cc1 [Haloperidol hydrochloride] | 92
Cc1ccc(C)c(OCCCC(C)(C)C(=O)O)c1 [Gemfibrozil] | 98.5 ± 8.9
O=c1[nH]c2cc(Cl)ccc2c(O)c1-c1cccc(Oc2ccccc2)c1 | 104
O=C(O)C[C@H](O)C[C@H](O)/C=C/c1c(C2CC2)nc2ccccc2c1-c1ccc(F)cc1 [Pitavastatin calcium (Livalo)] | 68.5
O=C(Nc1ccccc1)N[C@@H]1C[C@@H](C(=O)O)Nc2cc(Cl)cc(Cl)c21 | 102
Cc1ccc(Sc2ccccc2N2CCNCC2)c(C)c1 | 60.7
CN1CCC(CNc2ccc3ncc(-c4cccc(OC(F)(F)F)c4)n3n2)CC1 [SGI-1776 free base] | 29.9 ± 1.6
NCC(=O)CCC(=O)O [5-Aminolevulinic acid HCl] | 101
CC(C)[C@H](NS(=O)(=O)c1ccc(-c2ccc(Br)cc2)cc1)C(=O)O | 97.3
CNCCC=C1c2ccccc2C=Cc2ccccc21 [Norcyclobenzaprine] | 94.1
NC(=O)c1ccc[n+]([C@@H]2O[C@H](COP(=O)([O-])OP(=O)(O)OC[C@H]3O[C@@H](n4cnc5c(N)ncnc54)[C@H](O)[C@@H]3O)[C@@H](O)[C@H]2O)c1 [Nadide] | 94.8
COC(=O)CCc1ccc(OCC(O)CNC(C)C)cc1 (centres undefined) [Esmolol hydrochloride] | 102
O=C(NCc1cccc(O)c1)Nc1nc(-c2ccncc2)cs1 | 71.8
CN1C(C(=O)Nc2ccccn2)=C(O)c2ccccc2S1(=O)=O [Piroxicam] | 94.7 ± 12
COc1c(C)c2c(c(O)c1C/C=C(\C)CCC(=O)OCCN1CCOCC1)C(=O)OC2 [Mycophenolate mofetil (CellCept)] | 67.6

SMILES | nuclei count
COCCOC(=O)C1=C(C)NC(C)=C(C(=O)OC(C)C)C1c1cccc([N+](=O)[O-])c1 (centres undefined) [Nimodipine] | 104 ± 7.4
CC1(C)S[C@@H]2[C@H](NC(=O)[C@H](N)c3ccccc3)C(=O)N2[C@H]1C(=O)OC1OC(=O)c2ccccc21 (some centres undefined) [Talampicillin hydrochloride] | 99.8
NC(=O)OCC(O)COc1ccc(Cl)cc1 (centres undefined) [Chlorphensin carbamate] | 105
O=C(O)c1ccc(-n2nc(-c3ccccc3O)nc2-c2ccccc2O)cc1 [Deferasirox (Exjade)] | 104
C[C@H]1COC2(CCN(c3nc(=O)c4cc(C(F)(F)F)cc([N+](=O)[O-])c4s3)CC2)O1 (racemic) [BTZ043 racemate] | 101
C[C@]12CCC(=O)C=C1C=C[C@@H]1[C@@H]2CC[C@@]2(C)[C@H]1CC[C@@]21CCC(=O)O1 [Canrenone] | 107
CC1(C)[C@@H](O)CC[C@]2(C)[C@H]3C(=O)C=C4[C@@H]5C[C@@](C)(C(=O)O)CC[C@]5(C)CC[C@@]4(C)[C@]3(C)CC[C@@H]12 [Enoxolone (Glycyrrhetin)] | 103
CC1(C)CC(=O)c2c(C(F)(F)F)nn(-c3ccc(C(N)=O)c(N[C@H]4CC[C@H](OC(=O)CN)CC4)c3)c2C1 | 52.7
Cc1cnc(-c2cnc(NCCNc3ccc(C#N)cn3)nc2-c2ccc(Cl)cc2Cl)[nH]1 | 85.4 and 98.8
Cc1c(NC(C)C)c(=O)n(-c2ccccc2)n1C [Isopyrin hydrochloride] | 107
CCCNC(C)C(=O)Nc1c(C)csc1C(=O)OC (centres undefined) [Articaine hydrochloride] | 108
NCCc1cc[nH]n1 [Betazole hydrochloride] | 96.4
COc1cc(N)c(Cl)cc1C(=O)CCC1CCN(CCNS(C)(=O)=O)CC1 | 99.5
CNCc1ccc(-c2[nH]c3cc(F)cc4c3c2CCNC4=O)cc1 | 72.7
CC(=O)C1=C(O)C=C2Oc3c(C(C)=O)c(O)c(C)c(O)c3C2(C)C1=O (single isomer, unassigned; (+)) [(+)-Usniacin (D-Usnic acid)] | 104
CCNC(=O)c1noc(-c2cc(C(C)C)c(O)cc2O)c1-c1ccc(CN2CCOCC2)cc1 | 51.9
COc1cccc(N(C)C(=S)Oc2ccc3c(c2)CCCC3)n1 [Liranaftate] | 101
Clc1ccc(CCCOCCCN2CCCCC2)cc1 | 106
Nc1nc(=O)c2c([nH]1)NC[C@H](CNc1ccc(C(=O)N[C@@H](CCC(=O)O)C(=O)O)cc1)N2C=O [Calcium levofolinate (Calcium Folinate)] | 94.2
COc1ccc(CCc2nc3cc(-c4c(C)noc4C)ccc3n2C[C@H](C)N2CCOCC2)cc1Cl | 98.9
CC(C)C[C@H](NC(=O)N[C@H](C(=O)N[C@@H](CCC(N)=O)C(=O)N[C@@H](C)C=O)[C@@H]1CCNC(=N)N1)C(=O)O [Elastatinal] | 101
CC(C[N+](C)(C)C)OC(N)=O (centres undefined) [Bethanechol chloride] | 110
Cc1ccc2nc(NCCN)c3ncc(C)n3c2c1 | 39.2
Cc1c(NC(=O)OC[C@@H]2COCCN2)cn2ncnc(Nc3ccc4c(cnn4Cc4cccc(F)c4)c3)c12 | 100
NCCC(O)(P(=O)(O)O)P(=O)(O)O [Pamidronate Disodium] | 94.6
CC(C)Oc1cc(Nc2nc(N[C@@H](C)c3ccc(F)cn3)ncc2Cl)n[nH]1 | 52.7
C[C@H](NC[C@H](O)CP(=O)(O)Cc1ccccc1)c1ccc(Cl)c(Cl)c1 | 88

SMILES | nuclei count
COc1ccc([C@@H]2Sc3ccccc3N(CCN(C)C)C(=O)[C@@H]2OC(C)=O)cc1 [Diltiazem hydrochloride] | 96.4 ± 9.4
O=C1NC(=O)c2cc(Nc3ccc(F)cc3)c(Nc3ccc(F)cc3)cc21 | 116
Cc1cn([C@H]2C[C@H](N=[N+]=[N-])[C@@H](CO)O2)c(=O)[nH]c1=O [Zidovudine, AZT] | 100
C=CCc1ccc(O)c(-c2cc(CC=C)ccc2O)c1 [Magnolol] | 106
COc1ccc2c(c1)C(=O)N(CCc1ccc(S(=O)(=O)NC(=O)NC3CCCCC3)cc1)C(=O)C2(C)C [Gliquidone] | 108
CN(C)CCN(Cc1ccc(Cl)cc1)c1ccccn1 [Chloropyramine hydrochloride] | 105
CC(C)c1cccc(=O)c(O)c1 [Hinokitiol] | 87.3
NS(=O)(=O)Cc1noc2ccccc12 [Zonisamide] | 107 ± 8.5
CC(=N)NCc1cccc(CN)c1 [1400W dihydrochloride] | 99.8
Nc1ncnc2c1nc(Br)n2[C@@H]1O[C@@H]2COP(=O)(O)O[C@H]2[C@H]1O [8-Bromo-cAMP, sodium salt] | 97.4
CCCCC1C(=O)N(c2ccccc2)N(c2ccccc2)C1=O [Phenylbutazone] | 104
COc1cc2ncnc(Nc3ccc(F)c(Cl)c3)c2cc1NC(=O)/C=C/CN1CCCCC1 | 87.7 and 83.3
Nc1nccc(-c2ccc3noc(-c4ccc(Cl)cc4)c3c2)n1 [PIM 1 Inhibitor 2] | 97.2
CC1=CC(=O)c2ccccc2C1=O [Menadione] | 54.1
CC(=O)/N=c1/sc(S(N)(=O)=O)nn1C [Methazolamide] | 104
N=C(N)N1CCc2ccccc2C1 [Debrisoquin sulfate] | 104
Cc1ccc(C(=O)N(CCCN)[C@@H](c2nc3cc(Cl)ccc3c(=O)n2Cc2ccccc2)C(C)C)cc1 | 9.23
CCCc1nc2c(C)cc(-c3nc4ccccc4n3C)cc2n1Cc1ccc(-c2ccccc2C(=O)O)cc1 [Telmisartan] | 98.3
CCCCOC(=O)c1ccc(O)cc1 [Butylparaben] | 93.8
CNCCCCOc1ccccc1Cc1ccccc1 [Bifemelane hydrochloride] | 99.7
COCCCOc1cc(C[C@@H](C[C@H](N)[C@@H](O)C[C@H](C(=O)NCC(C)(C)C(N)=O)C(C)C)C(C)C)ccc1OC [Aliskiren hemifumarate] | 103
O=C(O)Cc1cc(I)c(Oc2ccc(O)c(I)c2)c(I)c1 [Tiratricol, 3,3',5-triiodothyroacetic acid] | 117
Cc1cc(Nc2ncc(Cl)c(Nc3ccccc3S(=O)(=O)C(C)C)n2)c(OC(C)C)cc1C1CCNCC1 [Ceritinib (LDK378)] | 14.7
COCCCOc1ccnc(C[S+]([O-])c2nc3ccccc3[nH]2)c1C (centres undefined) [Rabeprazole Sodium salt] | 105
C[C@@H](Oc1cc(-c2cnn(C3CCNCC3)c2)cnc1N)c1c(Cl)ccc(F)c1Cl | 39.6
